{"source": "PubChem BioAssay AID1347417", "about": "(National Center for Advancing Translational Sciences (NCATS), 2020)", "note": "Out of some 120,000 compounds screened, about 5,300 (4.4%) were called active. Inconclusive results, whose numbers are uncertain, are shown with a selection of clear calls. The call rests on the fitted dose curve; in most records, active means well fitted inhibition curve with a large enough effect; inconclusive means small, poorly fitted or top-dose-only effect; inactive means no such curve, though single readings can be large or run the other way. Where the call is inconclusive, the potency comes from a doubtful curve fit.", "data": [{"assay": "qHTS Primary assay for Inhibitors of Plasmodium falciparum Dd2 growth in vitro; further: nearly all actives have a fitted effect of over 65% in size; further: potency means the concentration at half of the fitted maximal effect; tags describe the fitted curve by direction and shape", "settings": "P. falciparum Dd2 growth, SYBR Green, 72 h; series mostly up to 28.9 µM", "outline": "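Infected erythrocytes (Dd2, 0.3% parasitemia, 2.5% hematocrit final) are added to compound in RPMI-1640/Albumax II medium, grown 72 h at 37C in low oxygen, then lysed with saponin/Triton-X containing SYBR Green and read by fluorescence.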", "values": [{"compound": "O=C1CCCCC(C(=O)NCCc2c[nH]c3ccccc23)N1", "note": "(stereo unspecified)", "Potency": "inconclusive: 6.31 µM [inhibitor, partial curve, poor fit]"}, {"compound": "CC(=O)Nc1ccc(C(=O)N2CCN(c3cc(-c4ccc(F)cc4)[nH]n3)CC2)cc1", "Potency": "inactive"}, {"compound": "O=C(Cc1ccc(Cl)cc1)N1C[C@@H](CN2CCCCC2)[C@@H](CO)C1", "Potency": "inconclusive: 12.6 µM [inhibitor, single point]"}, {"compound": "CC(NC(=O)C1(N2CCCCC2)Cc2ccccc2C1)c1cnn(C)c1", "note": "(stereo unspecified)", "Potency": "inconclusive: 8.91 µM [inhibitor, partial curve, poor fit]"}, {"compound": "O=C1NCc2ccccc2CC12CCCN2Cc1cccc(Cl)c1", "note": "(stereo unspecified)", "Potency": "inconclusive: 10 µM [inhibitor, single point]"}, {"compound": "O=C(COc1ccccc1)N1CCCC1c1nc(C2CCOCC2)no1", "note": "(stereo unspecified)", "Potency": "inactive"}, {"compound": "Cn1ccnc1CNCC1(CO)C[C@@H](O)[C@@H](O)C1", "note": "(stereo partly specified)", "Potency": "inactive"}, {"compound": "COc1ccc(C)cc1NC(=O)C1CCCN(S(=O)(=O)c2ccc3c(c2)CCCN3C(C)=O)C1", "note": "(stereo unspecified)", "Potency": "inconclusive: 20 µM [inhibitor, single point]"}, {"compound": "COc1ccc(C(=O)N2C[C@@H](Oc3ccccc3)C[C@H]2C(=O)N2CCOCC2)cc1F", "Potency": "inactive"}, {"compound": "COc1ccc(-c2ccc3ncn(C4CC4)c(=O)c3n2)cn1", "Potency": "inconclusive: 31.6 µM [inhibitor, single point]"}, {"compound": "CN(C)CC1(O)CCC2(CCN(C(=O)c3ccccc3)CC2)CC1", "Potency": "inactive"}, {"compound": "CCc1ccc(NC(=O)CSc2nc(-c3ccccc3)no2)cc1", "Potency": "active: 2.51 µM"}, {"compound": "COc1cccc(CN2CC[C@@H]3C(=O)NCCCCCCN(Cc4ccncc4)[C@@H]3C2)c1OC", "Potency": "inconclusive: 5.62 µM [inhibitor, partial curve, poor fit]"}, {"compound": "O=C(Nc1ccc2[nH]ccc2c1)c1ccc(-c2ncc3cnc(C4=CCOCC4)cn23)cc1", "Potency": "active: 1.58 µM"}, {"compound": "COc1ccc2c(CNCc3ccco3)c(C(=O)O)n(Cc3ccc(F)cc3Cl)c2c1", "Potency": "inconclusive: 17.8 µM [inhibitor, single point]"}, {"compound": "CC(C)c1ccc(S(=O)(=O)N2CC(c3nc(-c4ccncc4)no3)C2)cc1", "Potency": "inconclusive: 20 µM [inhibitor, single point]"}, {"compound": "O=C(c1ccccc1)N1CCn2c(nn(-c3cccc(Cl)c3)c2=O)C1", "Potency": "inconclusive: 12.6 µM [inhibitor, partial curve, poor fit]"}, {"compound": "COc1ccc(Cl)c(Cn2c(NCCN)nc3c2c(=O)n(C)c(=O)n3C)c1", "Potency": "inconclusive: 17.8 µM [inhibitor, single point]"}, {"compound": "O=S(=O)(c1ccc2c(c1)OCCO2)N1CCCC(c2nc(CCOCC3CC3)no2)C1", "note": "(stereo unspecified)", "Potency": "inconclusive: 11.2 µM [inhibitor, partial curve]"}, {"compound": "CCC(=O)N1CCc2cc(Br)cc(S(=O)(=O)N3CCC(C(=O)NC(C)(C)C)CC3)c21", "Potency": "inconclusive: 11.2 µM [inhibitor, single point]"}, {"compound": "CCc1cccc(NC(=O)Cn2cccc2-c2nc(-c3ccccc3)no2)c1", "Potency": "inconclusive: 2.51 µM [inhibitor, full curve, poor fit]"}, {"compound": "CC(=O)Nc1cccc(C(=O)NCc2nnc3ccc(-c4ccc(C)cc4)nn23)c1", "Potency": "inconclusive: 2.51 µM [inhibitor, full curve, poor fit]"}, {"compound": "Cc1ccc2nc(C3CCN(Cc4ccccc4)CC3)[nH]c(=O)c2c1", "Potency": "inactive"}, {"compound": "O=C1[C@H]2CN(Cc3cc(Cl)ccc3F)C[C@H]2C(=O)N1CCN1CCc2ccccc2C1", "Potency": "inconclusive: 5.01 µM [inhibitor, partial curve]"}, {"compound": "c1ccc(-c2cnc3n2C[C@H](CNCc2cccs2)OC3)cc1", "Potency": "inconclusive: 31.6 µM [inhibitor, partial curve, poor fit]"}, {"compound": "CS(=O)(=O)N1CC2(CCN(C3CCCCC3)C2)Cc2ccccc21", "note": "(stereo unspecified)", "Potency": "inconclusive: 11.2 µM [inhibitor, partial curve]"}, {"compound": "COc1ccc(C(=O)Nc2ccc3nc4n(c(=O)c3c2)CCCCC4)cc1OC", "Potency": "inconclusive: 20 µM [inhibitor, partial curve, poor fit]"}, {"compound": "CCC(C(=O)N1CCC(c2n[nH]c(=O)n2Cc2ccc(OC)cc2)CC1)c1ccccc1", "note": "(stereo unspecified)", "Potency": "inconclusive: 7.08 µM [inhibitor, partial curve, poor fit]"}, {"compound": "CCCCc1cc(C[C@H]2CNCC[C@H]2CC(=O)NCc2ccc(F)cc2)no1", "Potency": "inconclusive: 4.47 µM [inhibitor, single point]"}, {"compound": "CC1=C[C@@H](CNS(C)(=O)=O)[C@H](C(C)C)C[C@H]1CC(=O)NC1CCCC1", "Potency": "inactive"}, {"compound": "CNC(=O)[C@@H]1CN(C(=O)c2ccc(Cl)cc2OC)C[C@H]1c1nc(C)no1", "Potency": "inactive"}, {"compound": "COc1ccc(CNC(=O)N2CCCCC2c2nc(-c3ccncc3)n[nH]2)cc1", "note": "(stereo unspecified)", "Potency": "inconclusive: 17.8 µM [inhibitor, single point]"}, {"compound": "O=C(Nc1cccc(-c2nnc3n2CCCC3)c1)c1ccc(F)cc1F", "Potency": "inconclusive: 7.94 µM [inhibitor, partial curve]"}, {"compound": "O=C(c1ccc(C(F)(F)F)cc1)N1CCC(C(=O)O)(c2ccccc2)CC1", "Potency": "inactive"}, {"compound": "CCOC(=O)c1ccc(NC(=O)CN2C(=O)c3cccnc3Oc3ccc(Cl)cc32)cc1", "Potency": "inconclusive: 17.8 µM [inhibitor, single point]"}, {"compound": "Cc1noc(-c2cccn3c(CNC(=O)c4ccc5ccccc5n4)nnc23)n1", "Potency": "inactive"}, {"compound": "COc1cccc(N2C(=O)NC(=NC3CCCCC3)C23CCN([S+](=O)([O-])c2cccc(OC)c2)C3)c1", "note": "(stereo unspecified)", "Potency": "inconclusive: 3.16 µM [inhibitor, single point]"}, {"compound": "Cc1ccc(Cl)cc1Nc1nc2ccccc2n2c(C)nnc12", "Potency": "inconclusive: 3.55 µM [inhibitor, full curve, poor fit]"}, {"compound": "CCC(Cn1cnc(-c2ccccc2)c1-c1ccc(C#N)cc1)N1CCN(C)CC1", "note": "(stereo unspecified)", "Potency": "active: 8.91 µM"}, {"compound": "O=C(COc1ccc(Cl)cc1)N1CCC(Cc2nc(-c3ccccc3)no2)CC1", "Potency": "inactive"}, {"compound": "COc1cccc(-c2cnc3[nH]cc(CC(=O)NCc4cccnc4)c3c2)c1", "Potency": "inconclusive: 31.6 µM [inhibitor, single point]"}, {"compound": "CCc1ccccc1NC(=O)CSc1nnc(-c2nonc2NC(C)=O)n1C", "Potency": "inactive"}, {"compound": "Cn1nc(C2CCCCC2)cc1[C@H]1CN2CC[C@H]1C[C@@H]2CNC(=O)Nc1cccc(C#N)c1", "Potency": "inconclusive: 20 µM [inhibitor, single point]"}, {"compound": "Cc1ccnc(NC(c2ccccc2F)c2ccc3cccnc3c2O)c1", "note": "(stereo unspecified)", "Potency": "active: 6.31 µM"}, {"compound": "O=C(NCc1ccccn1)C1c2ccccc2C(=O)N(Cc2ccccc2)C12CCCC2", "note": "(stereo unspecified)", "Potency": "inconclusive: 2.51 µM [inhibitor, full curve]"}, {"compound": "CN(CCc1ccccn1)c1ccc(-c2nc(COc3ccccc3)no2)cn1", "Potency": "inconclusive: 1.58 µM [inhibitor, full curve, poor fit]"}, {"compound": "O=C(Nc1ccc2nc(SCC(=O)N3CCCC3)sc2c1)c1ccc(F)cc1", "Potency": "inactive"}, {"compound": "CCc1ccccc1S(=O)(=O)Nc1cccn2nc(C(C)C)nc12", "Potency": "active: 8.91 µM"}, {"compound": "COc1ccc(C(=O)N2CCCCCCNC(=O)[C@@H]3C[C@@H](c4nc(-c5cccnc5)no4)C[C@@H]32)cc1", "Potency": "inactive"}, {"compound": "Cc1ccc(-c2cn3c(n2)sc2cc(C(=O)N4CCCCC4)ccc23)cc1", "Potency": "inconclusive: 10 µM [inhibitor, single point]"}, {"compound": "Cc1ccc(NC(=O)NCc2cccn2Cc2ccccc2)cc1F", "Potency": "inconclusive: 12.6 µM [inhibitor, single point]"}, {"compound": "O=C(NC[C@H]1OC[C@@H](N(Cc2ncc[nH]2)Cc2ncc[nH]2)[C@@H]1O)c1ccccc1", "Potency": "inactive"}, {"compound": "COC(=O)C(C)Sc1nc2c([nH]c3ccccc32)c(=O)n1-c1ccc(OC)cc1", "note": "(stereo unspecified)", "Potency": "inconclusive: 10 µM [inhibitor, single point]"}, {"compound": "CCC(C(=O)OCc1cc(=O)n2nc(CCOC)sc2n1)c1ccccc1", "note": "(stereo unspecified)", "Potency": "inconclusive: 8.91 µM [inhibitor, partial curve, poor fit]"}, {"compound": "Fc1ccccc1-c1noc(-c2ncn3c2COC(c2ccccc2Cl)C3)n1", "note": "(stereo unspecified)", "Potency": "inconclusive: 11.2 µM [inhibitor, single point]"}, {"compound": "Cc1noc2c(N(C)C)cc(-c3ccc(F)cc3)nc12", "Potency": "inconclusive: 39.8 µM [inhibitor, single point]"}, {"compound": "COc1cccc(N2CCN(c3nc4ccc(C(=O)c5ccccc5)cc4n4c(C)nnc34)CC2)c1", "Potency": "active: 6.31 µM"}, {"compound": "CC1=C[C@@H](CNC(=O)C2CC2)[C@H](C(C)C)C[C@H]1Cc1nc2ccncc2[nH]1", "Potency": "inactive"}, {"compound": "CCOc1cc(C2c3c(oc4ccccc4c3=O)C(=O)N2Cc2ccc3c(c2)OCO3)ccc1O", "note": "(stereo unspecified)", "Potency": "inconclusive: 0.112 µM [inhibitor, full curve, poor fit]"}, {"compound": "COc1ccc(Cn2c(C3CCN(C(=O)C4CCCCC4)CC3)n[nH]c2=O)cc1", "Potency": "inactive"}, {"compound": "O=C1NCc2ccccc2CC12CCCN2Cc1ccnc2ccccc12", "note": "(stereo unspecified)", "Potency": "inactive"}, {"compound": "Cc1nc2sc(C(=O)NCc3ccc(Cl)cc3)c(NC(=O)c3ccccc3)c2c(C)c1C", "Potency": "inconclusive: 14.1 µM [inhibitor, single point]"}, {"compound": "CCCNC(=O)CCC1CCN(C(=O)c2ccc(C)cc2)CC1", "Potency": "inactive"}, {"compound": "O=C(NCC1CC1)C1CCCN(c2nc3ncccc3o2)C1", "note": "(stereo unspecified)", "Potency": "inactive"}, {"compound": "CCOCC(=O)N1CCC2(CCC(=O)N(CC3CC3)CC2)CC1", "Potency": "inconclusive: 3.98 µM [inhibitor, single point]"}, {"compound": "CC(C)N1CCC(CCNC(=O)CCC[C@H]2NC[C@@H]3C[C@H]2CN(Cc2ccccc2)C3)CC1", "Potency": "inconclusive: 20 µM [inhibitor, partial curve, poor fit]"}]}]}
